# PubChem BioAssay AID686978 (National Center for Advancing Translational Sciences (NCATS), 2013)
# The whole screen tested about 420,000 compounds, of which about 64,000 (15%) were called active. The shares of active, inactive and inconclusive entries below differ from those in the screen. Calls follow the shape of the dose curve; as a rule, active = well fitted inhibition curve with a large enough effect; inconclusive = small, poorly fitted or top-dose-only effect; inactive = flat fitted curve, though single readings scatter. Potencies of inconclusive entries are left out as doubtful fits.
# Assay: qHTS for Inhibitors of human tyrosyl-DNA phosphodiesterase 1 (TDP1): qHTS in cells in absence of CPT; also: nearly all actives have a fitted effect of over 55% in size
# Conditions: DT40 Tdp1-/- hTDP1 cells, no CPT, ATP luminescence, 48 h; activity change, negative = growth inhibition: at 46.2 µM (top of the series) unless noted
# Method in brief: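 Chicken DT40 Tdp1-/- cells stably complemented with human TDP1 were seeded at 400 cells/well with DMSO in place of 20 nM camptothecin. After compound pinning, cells grew at least 48 hr at 37 °C; viability read by CellTiter-Glo luminescence.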
# % is scaled to controls: 0 for no effect and ±100 for the full control effect; potency is read from the fitted curve at half-maximal effect; tags tell the direction and shape of the fitted curve.
Compound,"activity change, negative = growth inhibition",Potency
CN(CCOc1ccccc1)CC(=O)Nc1cc([N+](=O)[O-])ccc1Cl,inconclusive: -30.9% [inhibitor],
COCCN(CCOC)Cc1cc(=O)oc2cc3c(cc12)CCC3,inactive: -21.3%,
Brc1cc2c(cc1CN1CCc3ccccc3C1)OCO2,,"inconclusive [inhibitor, partial curve, poor fit]"
CN(CC(=O)Nc1ccc(F)c(F)c1F)C(=O)C1COc2ccccc2O1 (centres undefined),inactive: -15.9%,
N#C/C(=C\C=C\c1ccccc1)C(=O)NCc1cccnc1,,active: 29.1 µM
CC1(c2ccccc2)CC(C)(C)N2C(=O)/C(=C3\SC(=S)NC3=O)c3cccc1c32 (centres undefined),,active: 14.6 µM
N#CC1=C(N)OC2=C(C(=O)CC(c3ccco3)C2)C1c1ccc(OCc2c(F)cccc2Cl)cc1 (centres undefined),,"inconclusive [inhibitor, single point]"
Cc1ccc(S(=O)(=O)CCC(=O)N(Cc2nnc(-c3ccc(Cl)cc3)o2)C2CC2)cc1,,"inconclusive [inhibitor, single point]"
CCSc1n[nH]c2nc3c(c(=O)n12)C1(CCCCC1)Cc1ccccc1-3,inactive: -36.9%,
CCn1c(Cn2nnc(-c3ccccc3)n2)nnc1SCC(=O)Nc1ccc(N(C)C)cc1,,"inconclusive [inhibitor, full curve]"
CC(C)C(=O)NCCc1nc(-c2ccccc2Cl)no1,inactive: -13.5%,
CCCCC(Sc1ccc2nnc(-c3ccccn3)n2n1)C(=O)O (centres undefined),inactive: -1.09%,
Cc1nc(-c2ccc(F)cc2)c(CC(=O)N(C)CC(=O)Nc2ccc(F)cc2)s1,inactive: -22.6%,
CC(=O)Nc1ccc(CN(C)c2c(C)nc3ccc(C(=O)Nc4ccc(Cl)c(Cl)c4)cn23)cc1,,"inconclusive [inhibitor, single point]"
O=S(=O)(Nc1ccc(Cl)cn1)c1ccc2c(c1)OCCO2,inactive: -17%,
CC(=O)Oc1ccc(C23c4ccccc4C2(OC(C)=O)c2cc(OC(C)=O)ccc23)cc1 (centres undefined),,"inconclusive [inhibitor, single point]"
CCOC(=O)c1sc(NC(=O)c2cc3nc(-c4ccccc4)cc(C(F)(F)F)n3n2)c(C(=O)OCC)c1C,inactive: -19.5%,
O=C(NCCc1nc(-c2ccccc2Cl)no1)c1ccccc1,,"inconclusive [inhibitor, partial curve]"
CCCc1cnc(N2CCN(C(=O)c3ccc(OC)cc3)CC2)nc1,,"inconclusive [inhibitor, partial curve, poor fit]"
O=C1NC2c3c(I)sc(I)c3C(=O)C2O1 (centres undefined),,active: 7.31 µM
Cc1cc(C)cc(Oc2c(C(F)(F)F)oc3cc(OCC(=O)NC4CCCCC4)ccc3c2=O)c1,,"inconclusive [inhibitor, single point]"
CCOC(=O)C1(CCOc2ccccc2)CCN(Cc2nccn2CC)CC1,,"inconclusive [inhibitor, single point]"
CC1(C(=O)NCC2CC2)Cc2c(-c3ccccc3)ccnc2O1 (centres undefined),,active: 13 µM
CCN(CC)C(=O)C1CCCN(c2ccc([N+](=O)[O-])cc2/C=N/NC(=O)c2ccccc2)C1 (centres undefined),,"inconclusive [inhibitor, partial curve, poor fit]"
O=C(C#Cc1ccccc1)c1ccc([N+](=O)[O-])cc1,,active: 0.92 µM

Compound,"activity change, negative = growth inhibition",Potency
Cn1ccc(C(=O)N/N=C/c2ccncc2)n1,inactive: 14.8%,
CCOc1cc(N2CCOCC2)c(OCC)cc1NC(=O)COC(=O)c1ccc(Cl)nc1,inactive: -19.8%,
CCCCCCNC(=O)O[C@@]12CN(S(=O)(=O)c3ccc(C)cc3)C[C@]1(O)Cn1c(=O)n(CCCCCC)c(=O)n1C2,,"inconclusive [inhibitor, single point]"
COc1cc(NC(=O)c2cccnc2)c(Cl)cc1NC(=O)c1ccccc1,,"inconclusive [inhibitor, single point]"
O=C(Nc1ccncc1)c1cc(S(=O)(=O)N2CCCCC2)ccc1Cl,,"inconclusive [inhibitor, single point]"
Cc1cc(C)c(S(=O)(=O)Nc2ccc(-c3ccc(N4CCCCCC4)nn3)cc2)c(C)c1,,"inconclusive [inhibitor, single point]"
CN(CC(=O)NCc1ccccc1)S(=O)(=O)c1ccc2[nH]c3c(c2c1)CCCC3,,"inconclusive [inhibitor, single point]"
COc1cc(C(=O)Nc2ccc(S(=O)(=O)NC(C)C)cc2)cc(OC)c1OC,inactive: -23.4%,
Cc1cccc(C(=O)NC(=S)NNC(=O)c2ccccc2Cl)c1,,"inconclusive [inhibitor, single point]"
COc1ccc(C(N)CCc2ccco2)cc1 (centres undefined),,"inconclusive [inhibitor, partial curve]"
COc1ccccc1Oc1ccc(NC(=O)Cc2ccccc2)cc1,inactive: -25.8%,
NC(=O)c1c(NC(NC(=O)c2ccco2)C(=O)c2ccc(Cl)cc2)sc2c1CCCC2 (centres undefined),,"inconclusive [inhibitor, partial curve]"
O=C(NC(=S)Nc1nc(-c2ccc(Br)cc2)cs1)c1ccco1,,"inconclusive [inhibitor, partial curve]"
CC(C)Oc1cccc(C(=O)C2CCCN(S(=O)(=O)C(C)C)C2)c1 (centres undefined),,"inconclusive [inhibitor, single point]"
COC(=O)c1ccc(OCC2c3cc(OC)c(OC)cc3CCN2C(=O)Cc2ccccc2)cc1 (centres undefined),,active: 16.4 µM
CS(=O)(=O)c1ccc(Cl)c(NC(=O)CSc2nnc3n2CCCCC3)c1,inactive: 10.4%,
CCCCC[C@@H](C)N1C[C@H](COCc2ccccc2)Oc2cc(N3CCC[C@H]3CO)ccc2S1(=O)=O,,active: 16.4 µM
O=[N+]([O-])c1cc2c(cc1/C=N/Nc1nc(N3CCCC3)nc(N3CCCC3)n1)OCO2,inactive: -22.7%,
O=C(Nc1cccc(C(=O)NC2CCCC2)c1)c1ccccc1,inconclusive: -33.2% [inhibitor],
Cc1cc(S(=O)(=O)NCc2ccccc2)ccc1OCC(=O)N1CCCC1,inactive: -12.2%,
C#CCOC(=O)c1cc(Cl)c(=O)n(Cc2ccc(Cl)cc2Cl)c1,inactive: -15.8%,
COc1cc(Cl)ccc1OC1(C)CCN(Cc2cccc(OC)c2OC)C1 (centres undefined),,active: 16.4 µM
O=C(CSc1nnc2ccccn12)NNC(=O)c1ccc(F)cc1,inactive: -1.45%,
CN(Cc1ccccc1)Cc1nc2c(c(=O)n(C)c(=O)n2C)n1Cc1ccccc1Cl,,active: 11.6 µM
CN1CCc2nc3sc(C(=O)C45CC6CC(CC(C6)C4)C5)c(N)c3cc2C1,,"inconclusive [inhibitor, single point]"

Compound,"activity change, negative = growth inhibition",Potency
O=C(O)C1Nc2ccc(Br)cc2C2C=CCC12 (centres undefined),inactive: -11.7%,
NC(c1csc(Nc2cc(Oc3ccccc3)ncn2)n1)C1CCCCC1 (centres undefined),,"inconclusive [inhibitor, single point]"
Nc1cc(=O)[nH]c(SCC(=O)c2ccc(F)cc2)n1,inactive: 6.97%,
O=C(COC(=O)c1cccc(F)c1)Nc1cccc(S(=O)(=O)N2CCCCC2)c1,,"inconclusive [inhibitor, single point]"
Cc1ccccc1CC(=O)NC1CCCc2ccccc21 (centres undefined),,"inconclusive [inhibitor, single point]"
O=c1c(Cl)c(NCc2ccccc2Cl)cnn1C12CC3CC(CC(C3)C1)C2,,"inconclusive [inhibitor, single point]"
CC(NC(=S)Nc1ccc(Cl)cc1Cl)C(c1cccs1)N1CCCC1 (centres undefined),,"inconclusive [inhibitor, single point]"
COc1ccc(-c2cn3nc(N4CCCC(C(=O)Nc5cc(C)cc(C)c5)C4)sc3n2)cc1 (centres undefined),,active: 8.2 µM
O=C(c1ccc(Cl)s1)N1CCN(S(=O)(=O)c2ccc(Cl)cc2)CC1,,"inconclusive [inhibitor, single point]"
COC(=O)c1cccc(NC(=O)/C=C/c2cccc([N+](=O)[O-])c2)c1,,active: 12.6 µM
COc1ccc(-c2[nH]c(-c3cccc(OC)c3)nc2SCC(=O)NC2CCCC2)cc1,,active: 23.1 µM
CCN(Cc1ccccc1)S(=O)(=O)c1cc(C(=O)Nc2cc(Cl)cc(Cl)c2)ccc1F,,active: 6.51 µM
COc1cc(C)nc(N2CCCC(C(=O)Nc3cccc(Cl)c3Cl)C2)n1 (centres undefined),,"inconclusive [inhibitor, single point]"
COc1ccccc1N1CCN(c2ncnc3c2cnn3-c2cccc(Cl)c2)CC1,,"inconclusive [inhibitor, full curve, poor fit]"
CC(C)(C)C1CCc2c(sc(NC(=O)c3ccc(Cl)cc3)c2C(=O)NCc2ccco2)C1 (centres undefined),inactive: -15.8%,
O=C(C1CCCN1C(=O)c1cccs1)N1CCN(S(=O)(=O)c2ccc(F)cc2)CC1 (centres undefined),inactive: -5.44%,
CCOC(=O)/C(=N/Nc1ccc(Br)cc1)N1CC(C)OC(C)C1 (centres undefined),,"inconclusive [inhibitor, single point]"
Cc1ccc(CNCc2ccco2)cc1,inactive: -25.3%,
Cc1ccc(-c2csc3ncnc(NCCC(=O)O)c23)cc1,inactive: -9.32%,
CSc1ccc(OC2(C)CCN(Cc3ccc(OC(C)C)cc3)C2)cc1 (centres undefined),,"inconclusive [inhibitor, single point]"
COc1cc(NC(=O)C2CCCO2)c(OC)cc1NC(=O)c1ccccc1 (centres undefined),,"inconclusive [inhibitor, single point]"
Cc1ccc(S(=O)(=O)NCCC(=O)N2CCOCC2)cc1C,inactive: -1.98%,
CC(NC(=O)c1ccccc1F)C12CC3CC(CC(C3)C1)C2 (centres undefined),,"inconclusive [inhibitor, single point]"
COc1ccccc1-c1csc(NC(=O)c2ccc(N3C(=O)CCC3=O)cc2)n1,,"inconclusive [inhibitor, single point]"
